According to PubChem BioAssay AID686978 (National Center for Advancing Translational Sciences (NCATS), 2013):
“And” between values parts separate entries of the source, which are not always exact repeats. Equal values may be shown once. Screen size: about 420,000 compounds; about 64,000 (15%) were called active. The inconclusive results got no clear call from the source; some entries with a clear call stand among them for comparison. The call rests on the fitted dose curve; in most records, active means well fitted inhibition curve with a large enough effect; inconclusive means small, poorly fitted or top-dose-only effect; inactive means flat fitted curve, though single readings scatter. Potencies of inconclusive entries are doubtful fits and often do not repeat.
On the % scale 0 is the no-effect control and ±100 the full control effect; potency means the concentration at half of the fitted maximal effect; tags describe the fitted curve by direction and shape.

Assay: qHTS for Inhibitors of human tyrosyl-DNA phosphodiesterase 1 (TDP1): qHTS in cells in absence of CPT; further: nearly all actives have a fitted effect of over 55% in size
Details: DT40 Tdp1-/- hTDP1 cells, no CPT, ATP luminescence, 48 h; activity change, negative = growth inhibition: at 46.2 µM (top of the series)
Outline: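 Stably hTDP1-transfected Tdp1-null chicken DT40 cells were treated with library compounds minus camptothecin and grown for at least 48 hr at 37 °C, after which cellular ATP was quantified by luminescence.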
With `Cc1cc(C(=O)N/N=C2/CC(C)CC(C)(C)C2)c(C)o1` (centres undefined) the Potency was inconclusive: 16.4 µM [inhibitor, partial curve]. In the case of `CC(=O)N/C(=C/c1ccc2c(c1)OCO2)C(=O)NCc1ccccc1`, the “activity change, negative = growth inhibition” value is reported as inactive: 0.112%. In the case of `COc1cccc(Cn2c(=O)cnc3cnc(Oc4cccc(Cl)c4)nc32)c1`, the Potency is reported as inconclusive: 18.4 µM [inhibitor, single point]. In the case of `Cc1cc(/C=N/Nc2ccc([N+](=O)[O-])cn2)c(C)n1-c1ccccc1`, the Potency is reported as inconclusive: 29.1 µM [inhibitor, single point]. For `CCC(=O)N=c1sc2cc([N+](=O)[O-])ccc2n1CCOC`, the Potency was inconclusive: 0.731 µM [inhibitor, full curve, poor fit]. For `CC1(C)CCc2cc(CN3CCN(c4ccccn4)CC3)ccc2O1`, the Potency was inconclusive: 20.6 µM [inhibitor, single point]. With `Cc1ccc(S(=O)(=O)C(CNC(=O)C(C)C)c2cccs2)cc1` (centres undefined) the “activity change, negative = growth inhibition” value was inactive: 13.3%. In the case of `COc1cc(CNCCO)cc(Br)c1OCc1ccccc1Cl`, the Potency is reported as inconclusive: 18.4 µM [inhibitor, single point]. With `COc1ccccc1N1CCN(C(=S)Nc2ccc3nc(N4CCOCC4)cc(C)c3c2)CC1` the Potency was inconclusive: 29.1 µM [inhibitor, single point]. For `CN(CC(=O)Nc1cccc(F)c1)C(=O)CCc1nc2sc3c(c2c(=O)[nH]1)CCCC3`, the Potency was inconclusive: 29.1 µM [inhibitor, single point]. In the case of `O=C(c1ccc(OC2CCN(Cc3ccc(C(F)(F)F)cc3)CC2)cc1)N1CCCCC1`, the Potency is reported as active: 20.6 µM. For `Cc1ccc2nc3c(cc(C(N)=S)c(=N)n3CCCOC(C)C)c(=O)n2c1`, the Potency was active: 16.4 µM. With `Fc1ccccc1NC(=S)NCCc1cccc(Cl)c1` the Potency was active: 7.31 µM. For `CCCCN(CC)CCCNC(=O)c1cc2c(-c3ccc(OC)c(OC)c3)nn(C)c2s1`, the Potency was inconclusive: 18.4 µM [inhibitor, single point] and inconclusive: 29.1 µM [inhibitor, single point]. With `COc1ccccc1C(=O)Oc1cc(N)n(S(=O)(=O)c2ccccc2)n1` the “activity change, negative = growth inhibition” value was inactive: 2.12%. In the case of `CC(OC(=O)/C=C/c1ccccc1)C(=O)N1CCc2ccccc21` (centres undefined), the “activity change, negative = growth inhibition” value is reported as inactive: -24.4%. In the case of `COc1ccc(/C=C/C(=O)OCC(=O)Nc2ccc(S(N)(=O)=O)cc2)cc1OC`, the Potency is reported as inconclusive: 29.1 µM [inhibitor, single point]. In the case of `Cn1nc(C(=O)N2CCN(c3ccccc3F)CC2)c2c1-c1ccccc1SC2`, the Potency is reported as inconclusive: 25.9 µM [inhibitor, single point]. With `Cc1ccc(NC(=O)c2cccn2-c2nnc(N3CCCCC3)s2)cc1Cl` the Potency was inconclusive: 23.1 µM [inhibitor, single point]. With `CCC(c1nc2ccccc2[nH]1)n1c(=O)c(-c2ccccc2)nc2ccccc21` (centres undefined) the Potency was inconclusive: 16.4 µM [inhibitor, single point]. In the case of `O=C1c2oc3ccc(F)cc3c(=O)c2C(c2cccc([N+](=O)[O-])c2)N1CCCN1CCOCC1` (centres undefined), the “activity change, negative = growth inhibition” value is reported as inactive: -17.8%. With `CCCCCC1C(=O)C[C@@H]2CCN3C(=O)CCC[C@H]1[C@H]23` (some centres undefined) the Potency was inconclusive: 29.1 µM [inhibitor, single point]. For `CCOc1ccc(-c2cnc(NCc3ccc(OC)cc3OC)n2C)cc1`, the Potency was inconclusive: 18.4 µM [inhibitor, partial curve]. For `COc1ccccc1S(=O)(=O)Cc1ccc(C(=O)N2CCCC2)o1`, the “activity change, negative = growth inhibition” value was inactive: -7.09%. With `CC(C1CC1)N(Cc1ccccc1)C(=O)NC(=O)c1cccc(F)c1` (centres undefined) the Potency was inconclusive: 29.1 µM [inhibitor, single point]. For `CC1CCCCC1NC(=O)COC(=O)c1ccc2c(=O)n3c(nc2c1)CCC3` (centres undefined), the “activity change, negative = growth inhibition” value was inactive: 7.34%. In the case of `O=C(NCc1ccc(F)cc1)c1ccc(NC(=O)N2CC3CCCN3c3ccccc32)cc1` (centres undefined), the Potency is reported as active: 11.6 µM. In the case of `COCCNC(=O)C1CCCN(S(=O)(=O)c2ccc3c(ccn3C)c2)C1` (centres undefined), the “activity change, negative = growth inhibition” value is reported as inactive: 4.72%. In the case of `CC(Sc1nnc2n1CCCCC2)C(=O)Nc1ccc(S(N)(=O)=O)cc1` (centres undefined), the “activity change, negative = growth inhibition” value is reported as inactive: 0.0165%. In the case of `Cc1cccn2c(=O)c3cc(C#N)c(=O)n(CCCN4CCOCC4)c3nc12`, the Potency is reported as inconclusive: 29.1 µM [inhibitor, single point]. For `O=C(NCCCNC(=O)c1cc(Cl)ccc1Cl)c1ccccn1`, the “activity change, negative = growth inhibition” value was inactive: 0.156%. For `CC(C)NC(=O)N(C)C[C@@H]1OCc2ccccc2-c2c(n(C)c3ccccc23)C(=O)N([C@@H](C)CO)C[C@@H]1C`, the Potency was inconclusive: 25.9 µM [inhibitor, partial curve, poor fit]. With `COc1ccc(Cl)cc1NC(=O)CCC(=O)c1ccc(C)cc1` the Potency was inconclusive: 29.1 µM [inhibitor, single point]. For `CCCC1(C(=O)OCC)NC(c2ccc(OC)cc2OC)C2C(=O)N(c3ccc4c(c3)OCCO4)C(=O)C21` (centres undefined), the activity change, negative = growth inhibition was inconclusive: -32% [inhibitor]. With `CC(C)c1ccc(NC(=O)C2Cc3c(-c4cccc(F)c4)ccnc3O2)cc1` (centres undefined) the Potency was active: 9.2 µM. In the case of `CC(C)(C)NC(=O)C(c1ccncc1)N(Cc1ccco1)C(=O)c1ccc(-c2ccccc2)[nH]1` (centres undefined), the Potency is reported as inconclusive: 29.1 µM [inhibitor, single point]. For `C/C(=N\NC(=O)NC1CCCCC1)c1ccc(OC(F)F)cc1OC(F)F`, the Potency was inconclusive: 13 µM [inhibitor, partial curve]. In the case of `O=C(NC1CCCCCC1)c1ccc(CS(=O)Cc2ccccc2Cl)o1` (centres undefined), the Potency is reported as inconclusive: 18.4 µM [inhibitor, single point]. For `COc1ccc(OC)c(Nc2ncnc3ccc(Br)cc23)c1`, the Potency was inconclusive: 13 µM [inhibitor, partial curve]. With `CC(C)(C)N(Cc1ccccc1)C(=O)COC(=O)C1=NN(c2ccccc2)C(=O)CC1` the “activity change, negative = growth inhibition” value was inactive: 8.6%. In the case of `Cc1cc(NC(=O)c2ccccc2-c2ccccc2)ccc1Br`, the Potency is reported as inconclusive: 18.4 µM [inhibitor, single point]. For `Cc1cc(C(=O)Nc2ccccc2)c(C)o1`, the Potency was inconclusive: 29.1 µM [inhibitor, single point]. For `COc1ccc2cc3cc(C(=O)NCC4COc5ccccc5O4)oc3nc2c1` (centres undefined), the Potency was active: 16.4 µM. In the case of `O=C(NC1CCCCC1)c1cc(F)cc2c1OCOC2`, the “activity change, negative = growth inhibition” value is reported as inactive: -29.5%.
